# Several values for one entry are separate records, joined by “and”; a condition that tells them apart may be missing. Equal entries are not always repeated. Out of some 420,000 compounds screened, about 50,000 (12%) were called active. The shares of active, inactive and inconclusive entries below differ from those in the screen. Calls come from the whole dose curve; as a rule, active = well fitted inhibition curve with a large enough effect; inconclusive = small, poorly fitted or top-dose-only effect; inactive = flat fitted curve, though single readings scatter. A potency beside an inconclusive call is a rough fit, not a confirmed value.
# Experiment: qHTS for Inhibitors of human tyrosyl-DNA phosphodiesterase 1 (TDP1): qHTS in cells in presence of CPT; note: nearly all actives have a fitted effect of over 55% in size
# Conditions: chicken DT40 Tdp1-/-;hTDP1 cells + 20 nM CPT, ATP luminescence, 48 h; activity change, negative = growth inhibition: at 46.2 µM (top of the series) unless noted
# Procedure, shortened: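 Cell growth measured by CellTiter-Glo luminescence after a minimum 48 h, 37 C compound exposure with 20 nM CPT in Tdp1-knockout DT40 cells stably expressing hTDP1, seeded 400/well; qHTS titration format.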
# % is set by controls: 0 for no effect and ±100 for the full control effect; potency is the fitted concentration of half-maximal effect; tags give direction and shape of the fitted curve.
Compound,Potency,"activity change, negative = growth inhibition"
Nc1nc(Cl)nc2c1ncn2C1CC(O)C(CO)O1 (stereo not given),active: 0.184 µM,
O=C(COc1ccc(F)cc1)Nc1nc(-c2cccnc2)cs1,"inconclusive: 18.4 µM [inhibitor, single point]",
CCc1cccc2c(C(=O)CCl)c[nH]c12,active: 14.6 µM,
CC(C)COC(=O)NCCCOC(=O)Nc1ccccc1,,inconclusive: -36.1% [inhibitor]
CN1CCN(C2=Cc3cc(Cl)ccc3Sc3cc(F)ccc32)CC1,"inconclusive: 29.1 µM [inhibitor, single point]",
Cc1ccc(F)cc1NC(=O)CCC(=O)c1cccs1,,inactive: -0.728%
Cc1cnc(NS(=O)(=O)c2ccccc2)c(C)n1,,inactive: 0.589%
OC(c1ccc(Cl)c(Cl)c1)c1ncc(-c2ccc(C(F)(F)F)cc2)[nH]1 (stereo not given),"inconclusive: 23.1 µM [inhibitor, single point]",
CCCCCCCC(=O)Nc1cc(C(=O)NCc2ccc(C)cc2)ccc1N1CCC2(CC1)CC(c1cccc(Br)c1)=NO2,"inconclusive: 23.1 µM [inhibitor, single point]",
CCCc1cc(=O)[nH]c(/N=C(\N)Nc2ccccc2)n1,"inconclusive: 20.6 µM [inhibitor, single point]",
Cc1cc(C)c2[nH]c(=O)c(CN(Cc3ccccc3)C(=S)NCCCN(C)C)cc2c1,"inconclusive: 20.6 µM [inhibitor, single point]",
Cc1c(C(=O)N2CCCCC2)sc2ncnc(NCCN(C)C)c12,,inactive: 17.1%
COc1ccccc1NS(=O)(=O)c1cc(C(=O)N2CC(C)CC(C)C2)ccc1C (stereo not given),"inconclusive: 29.1 µM [inhibitor, single point]",
Cc1cc(Cl)ccc1C(=O)C1CCCN(C(=O)c2nonc2C)C1 (stereo not given),"inconclusive: 23.1 µM [inhibitor, single point]",
CCCCOc1ccc(CNC(=O)c2ccc(NC(=O)N3CCCCc4ccccc43)cc2)cc1,active: 18.4 µM,
O=C(Nc1cccc(F)c1)C1CCN(C(=O)c2ccc(Cl)cc2)CC1,,inactive: -22.1%
O=C(Nc1ccc(C(F)(F)F)cc1)c1cccnc1N1CCOCC1,,inactive: -18.5%
COC(=O)c1ccc(/C=N/Nc2nc(C)c(C)s2)cc1,,inactive: -25.9%
Cc1cccc([C@@H]2[C@@H]3C(=O)N(Cc4ccccc4)C(=O)[C@@H]3[C@]3(Cc4ccccc4)C(=O)N(c4cccc(F)c4)C(=O)N23)c1,,inactive: -1.83%
COc1ccccc1-n1cnnc1SCC(=O)Nc1nc(C)c(Cl)cc1Cl,"inconclusive: 29.1 µM [inhibitor, single point]",
CCn1cc(/C=C(\NC(=O)c2ccccc2OC)C(=O)NCCCn2ccnc2)c2ccccc21,"inconclusive: 29.1 µM [inhibitor, single point]",
Cc1ccc(Cc2c(-c3ccc(C)cc3)nc3c(C)cc(Br)cn23)cc1,active: 16.4 µM,
CCC(=O)Nc1ccc2nc(SCCOc3ccccc3)sc2c1,,inactive: -20.4%

Compound,Potency,"activity change, negative = growth inhibition"
CC(C)(C)OC(=O)N1CCC(NC(=O)c2nc[nH]c2C(=O)N2CCc3ccccc3C2)CC1,"inconclusive: 3.66 µM [inhibitor, single point]",
CCOc1ccc(NCc2cccn2-c2nnc(N3CCC(C(=O)NCCCN4CCCCC4C)CC3)s2)cc1 (stereo not given),"inconclusive: 23.1 µM [inhibitor, single point]",
CCc1nc2c(OCc3ccccc3C)cccn2c1N(C)C(=O)c1ccco1,"inconclusive: 29.1 µM [inhibitor, single point]",
CC(C)CC[n+]1ccccc1/C=C/c1ccc(N(C)C)cc1,active: 0.0184 µM,
O=C(Nc1ccccc1Cl)NC1(C(=O)N2CCCC2)CCCCC1,,inactive: 1.71%
Cc1nc(N2CCN(C(=O)c3cccs3)CC2)c2c3c(sc2n1)CCCC3,"inconclusive: 16.4 µM [inhibitor, single point]",
CCOc1ccccc1NC(=O)CCc1c(C)nn(-c2ccc(N3CCOCC3)nn2)c1C,"inconclusive: 23.1 µM [inhibitor, single point]",
COc1cc(/C=C2\C(=N)N3N=C(S(C)(=O)=O)SC3=NC2=O)ccc1OCCOc1ccccc1C,,inactive: 4.44%
COc1cc(Nc2ncc3c(n2)CCN(C(=O)Nc2ccc(C(C)C)cc2)C3)cc(OC)c1OC,"inconclusive: 29.1 µM [inhibitor, single point]",
CSc1ccc(NC(=O)Nc2ccccc2C(N)=O)cc1,active: 13 µM,
CCC(=O)N1c2ccccc2CC1C(=O)NCCN1CCN(c2cccc(C(F)(F)F)c2)CC1 (stereo not given),active: 16.4 µM,
COc1ccc(N2CCN(C(CNC(=O)c3cccc(Cl)c3)c3cccnc3)CC2)cc1 (stereo not given),"inconclusive: 23.1 µM [inhibitor, single point]",
N/C(=N\c1nc2ccccc2o1)NC(=O)c1ccc(Cl)cc1,"inconclusive: 9.2 µM [inhibitor, partial curve]",
O=C(C1CCCCC1)N1C[C@@H](n2cc(-c3ccc(F)cc3)nn2)[C@H](O)C[C@@H]1c1ccc(Cl)cc1,active: 18.4 µM,
Cc1cc2nc3ccc(N(C)C)cc3nc2cc1N,"inconclusive: 20.6 µM [inhibitor, single point]",
N#CCC(=O)Nc1ccc(C(=O)OCC(=O)Nc2ccc3ccccc3c2)cc1,,inactive: -4.1%
CN(C)/C=N/c1nc2nccc(-c3cccc(Cl)c3)n2n1,"inconclusive: 29.1 µM [inhibitor, single point]",
CCOC(=O)C1(Cc2ccccc2C)CCCN(S(=O)(=O)c2cccnc2)C1 (stereo not given),"inconclusive: 29.1 µM [inhibitor, single point]",
Cc1ccc(C)c(N2CCN(Cc3nnc(-c4ccc5c(c4)OCO5)o3)CC2)c1,"inconclusive: 23.1 µM [inhibitor, single point]",
COc1ccc(S(=O)(=O)NCCSc2ccc(Cl)cc2)cc1OC,"inconclusive: 29.1 µM [inhibitor, single point]",
COc1cccc(CNC(=O)c2ccc3c(c2)nnn3C2CCCC2)c1,"inconclusive: 29.1 µM [inhibitor, partial curve]",
Cc1ccc(N(CC(=O)NCc2ccc(F)cc2)S(=O)(=O)c2c(C)nn(C)c2C)cc1,"inconclusive: 29.1 µM [inhibitor, single point] and inconclusive: 23.1 µM [inhibitor, partial curve]",
